In article PMC3187806:
These are yes or no findings as the source states them, for the method shown. In cells and extracts the contact can be indirect. Some results given as binding are weak or reduced against the parent protein; the word gives no strength.

Amino acid sequences for entries named in this document (tags omitted). A change or cut given only in a name is not applied to a line headed by its entry. Chains listed by the source or under a name are the forms on record and can include a tag or linker.
UniProt Q06609: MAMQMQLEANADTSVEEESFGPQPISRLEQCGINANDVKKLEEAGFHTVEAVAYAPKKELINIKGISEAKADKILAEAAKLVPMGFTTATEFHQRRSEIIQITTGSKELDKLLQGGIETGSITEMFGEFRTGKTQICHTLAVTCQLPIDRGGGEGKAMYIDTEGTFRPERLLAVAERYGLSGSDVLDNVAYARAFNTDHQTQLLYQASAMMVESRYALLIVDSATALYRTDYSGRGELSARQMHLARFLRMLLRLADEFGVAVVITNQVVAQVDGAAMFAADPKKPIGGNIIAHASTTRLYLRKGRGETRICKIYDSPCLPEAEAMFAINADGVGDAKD
UniProt P29590: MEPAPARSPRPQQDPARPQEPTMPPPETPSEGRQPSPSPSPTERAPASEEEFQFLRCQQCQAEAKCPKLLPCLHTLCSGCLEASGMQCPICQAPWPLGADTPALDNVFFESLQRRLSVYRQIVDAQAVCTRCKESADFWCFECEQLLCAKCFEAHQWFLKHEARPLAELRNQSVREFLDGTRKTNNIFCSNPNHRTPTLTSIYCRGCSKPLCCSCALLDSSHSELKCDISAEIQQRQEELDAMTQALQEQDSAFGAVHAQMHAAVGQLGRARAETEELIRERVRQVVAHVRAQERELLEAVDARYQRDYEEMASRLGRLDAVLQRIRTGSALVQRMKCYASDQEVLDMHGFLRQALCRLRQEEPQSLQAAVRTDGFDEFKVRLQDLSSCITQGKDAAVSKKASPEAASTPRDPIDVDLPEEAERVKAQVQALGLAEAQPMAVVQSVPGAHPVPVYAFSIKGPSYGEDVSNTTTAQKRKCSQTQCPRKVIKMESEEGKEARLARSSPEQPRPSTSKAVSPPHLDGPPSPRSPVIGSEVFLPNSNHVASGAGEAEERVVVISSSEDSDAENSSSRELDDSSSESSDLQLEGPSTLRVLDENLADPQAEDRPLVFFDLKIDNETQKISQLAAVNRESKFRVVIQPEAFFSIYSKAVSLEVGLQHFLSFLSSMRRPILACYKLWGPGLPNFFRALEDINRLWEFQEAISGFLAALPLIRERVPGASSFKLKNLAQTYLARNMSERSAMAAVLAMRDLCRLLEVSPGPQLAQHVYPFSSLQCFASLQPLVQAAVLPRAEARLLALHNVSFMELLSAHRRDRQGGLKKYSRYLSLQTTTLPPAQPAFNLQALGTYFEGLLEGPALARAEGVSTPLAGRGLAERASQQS
Flag-tagged PML isoform V (P29590-2, form named): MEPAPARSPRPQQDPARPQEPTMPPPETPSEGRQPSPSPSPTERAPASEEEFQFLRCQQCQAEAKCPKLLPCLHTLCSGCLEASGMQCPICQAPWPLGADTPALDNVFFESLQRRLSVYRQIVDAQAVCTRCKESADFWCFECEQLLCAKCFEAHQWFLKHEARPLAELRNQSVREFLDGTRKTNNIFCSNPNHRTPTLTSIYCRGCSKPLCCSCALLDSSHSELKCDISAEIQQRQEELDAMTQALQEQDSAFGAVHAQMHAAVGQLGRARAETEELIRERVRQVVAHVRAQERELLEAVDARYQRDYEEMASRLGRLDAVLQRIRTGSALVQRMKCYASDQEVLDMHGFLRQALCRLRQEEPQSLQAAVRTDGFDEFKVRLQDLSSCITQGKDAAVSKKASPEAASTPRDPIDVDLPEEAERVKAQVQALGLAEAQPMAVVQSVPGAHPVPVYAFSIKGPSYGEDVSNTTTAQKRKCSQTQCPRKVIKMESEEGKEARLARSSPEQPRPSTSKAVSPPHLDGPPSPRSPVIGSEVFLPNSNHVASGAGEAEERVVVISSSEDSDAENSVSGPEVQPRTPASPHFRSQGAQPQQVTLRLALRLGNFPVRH

Columns and labels:
[1] = biological target: Rad51 (human (endogenous in U2OS/T, U2OS and BJ/tert LT)) (UniProt Q06609); assay: co-IP; endogenous Rad51 immunoprecipitated (rabbit polyclonal antibody) from lysates of U2OS/T cells (stably expressing SV40 LT) transfected with Flag-PML I to VI; Flag immunoblot; lysis in 0.5 M NaCl buffer diluted with an equal volume of 0.05 M NaCl buffer, 4°C, washes with 150 mM NaCl
[2] = biological target: Rad51 (human (endogenous in U2OS/T, U2OS and BJ/tert LT)) (UniProt Q06609); assay: condition: only U2OS cells without LT and without a DNA damaging agent; co-IP; endogenous Rad51 immunoprecipitated from lysates of untreated U2OS cells (no LT) transfected with Flag-PML I-VI for 48 h; Flag immunoblot
[3] = biological target: Rad51 (human (endogenous in U2OS/T, U2OS and BJ/tert LT)) (UniProt Q06609); assay: co-IP; BJ/tert LT cell lysates immunoprecipitated with GFP (negative control), Rad51 or PML antibody; PML immunoblot; endogenous proteins

Row | Substance | binding [1] | binding [2] | binding [3]
1 | Flag-tagged PML isoform V (from UniProt P29590-2 1-611) | binds | no binding | 
2 | promyelocytic leukemia protein (PML), endogenous (from UniProt P29590 1-882) |  |  | binds
3 | Flag-tagged PML isoform I (from UniProt P29590-1 1-882) | binds weakly | no binding | 
